Reference: publication PMC4336329 (PLoS ONE, 2015)
About 2,200 (0.71%) of roughly 310,000 compounds showed an effect of 50% or more. The effect is printed as a negative number. This is one part of the list.

molecular target: human ether-à-go-go-related gene (hERG) potassium channel (human, UniProt Q12809); experiment: primary screen, population patch clamp on CHO cells stably expressing hERG
Sequence (Q12809 whole entry, looked up): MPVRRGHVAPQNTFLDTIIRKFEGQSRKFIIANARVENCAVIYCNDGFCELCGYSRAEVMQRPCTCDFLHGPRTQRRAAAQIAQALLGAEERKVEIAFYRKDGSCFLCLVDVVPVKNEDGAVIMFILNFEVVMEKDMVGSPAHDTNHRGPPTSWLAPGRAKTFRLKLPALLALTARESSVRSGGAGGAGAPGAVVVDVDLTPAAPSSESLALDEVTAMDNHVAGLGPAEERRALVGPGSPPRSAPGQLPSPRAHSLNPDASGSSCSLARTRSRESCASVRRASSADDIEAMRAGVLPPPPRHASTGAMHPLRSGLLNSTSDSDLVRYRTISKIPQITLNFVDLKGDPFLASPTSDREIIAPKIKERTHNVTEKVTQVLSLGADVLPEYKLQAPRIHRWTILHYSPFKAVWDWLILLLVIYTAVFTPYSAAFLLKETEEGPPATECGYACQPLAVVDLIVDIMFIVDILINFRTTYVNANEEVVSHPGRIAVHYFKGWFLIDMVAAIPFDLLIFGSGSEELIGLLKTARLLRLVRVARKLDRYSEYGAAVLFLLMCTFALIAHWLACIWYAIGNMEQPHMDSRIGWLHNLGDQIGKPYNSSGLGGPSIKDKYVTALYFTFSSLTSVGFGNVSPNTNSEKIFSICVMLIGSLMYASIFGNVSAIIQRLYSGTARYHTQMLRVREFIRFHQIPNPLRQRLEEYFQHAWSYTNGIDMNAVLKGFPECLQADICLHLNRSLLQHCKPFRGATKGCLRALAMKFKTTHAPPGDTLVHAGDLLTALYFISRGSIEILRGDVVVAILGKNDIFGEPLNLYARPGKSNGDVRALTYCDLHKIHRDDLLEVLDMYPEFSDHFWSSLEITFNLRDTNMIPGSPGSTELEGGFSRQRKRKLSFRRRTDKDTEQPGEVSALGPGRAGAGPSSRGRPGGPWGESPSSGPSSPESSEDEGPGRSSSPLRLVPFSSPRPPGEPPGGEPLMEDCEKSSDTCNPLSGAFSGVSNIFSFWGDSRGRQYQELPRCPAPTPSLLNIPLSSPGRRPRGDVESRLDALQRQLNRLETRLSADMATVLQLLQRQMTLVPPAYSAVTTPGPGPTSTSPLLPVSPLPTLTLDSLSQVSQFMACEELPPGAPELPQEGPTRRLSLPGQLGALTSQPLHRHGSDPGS

Structure (SMILES) | hERG current change (%, negative = inhibition) at 1uM [%]
CCN(Cc1nc2ccccc2c(=O)[nH]1)C(=O)c1ccc(C)c(NC(=O)c2ccco2)c1 | -0.388
COc1cccc(CC(=O)OCC(=O)NCCc2ccc(F)cc2)c1 | 13.2
COc1ccc(C2C(C(C)=O)=C(C)Nc3ncnn32)cc1[N+](=O)[O-] (centres unmarked) | 18.3
CNc1nc(SC)nc(N2CCOCC2)n1 | 13.1
COc1ccc(S(=O)(=O)N2CCOC2CNC(=O)C(=O)NCC(C)C)cc1 (centres unmarked) | 6.98
CCOc1ccc(NC(=O)C2Cc3ccccc3CN2S(=O)(=O)CC)cc1 (centres unmarked) | 15.4
CS(=O)(=O)c1ccc(C(=O)N2CCc3ccccc3C2)cc1 | 3.66
Cc1ccc(SCc2cc(=O)[nH]c(/N=C(\N)Nc3ccccc3Sc3ccccc3)n2)cc1 | 2.43
Cc1ccc(Nc2nc(CSc3nnc(-c4cccnc4)n3-c3ccccc3F)cs2)cc1 | -15.7
CCOC(=O)CN1C(=O)C(=O)c2cccc(C)c21 | 10.9
CCCNc1nc2c(c(=O)[nH]c(=O)n2C)n1Cc1ccc(F)cc1 | 1.92
Cc1cc(C)c2oc(-c3ccc(C)c(NC(=S)NC(=O)/C=C/c4ccco4)c3)nc2c1 | 15.3
COC(=O)c1cc(C(=O)c2c(C)cc3ccccn23)cc([N+](=O)[O-])c1 | 11
Cc1onc(-c2c(F)cccc2Cl)c1C(=O)N1C=CC(C(F)(F)Cl)=NCC1 | 1.73
O=C(NCCc1ccccc1)c1cccc(S(=O)(=O)N2CCCCC2)c1 | 8.36
CCN(CC)CCNc1nc(C(F)(F)F)nc2c1nnn2Cc1ccccc1 | 1.95
Fc1ccc(OCc2nn[nH]n2)c(F)c1 | 15.4
CC(C)(C)NC(=O)CN(CCN1CCOCC1)C(=O)CNS(=O)(=O)c1ccccc1 | 10.3
COC(=O)N1CC(=O)N(OC)C1c1ccc(Cl)cc1Cl (centres unmarked) | 8.83
O=C(CCn1cnc2ccccc2c1=O)Nc1cccc(Cl)c1 | 5.46
O=C(NNC(=S)Nc1cccc(Cl)c1)c1ccccc1 | 16.4
Cc1cc(C)nc(NS(=O)(=O)c2ccc(Br)s2)c1.Cl | 8.22
O=C(NC1CCCCC1)c1cc(C2CC2)nn1-c1ccccc1 | 4.03

Structure (SMILES) | hERG current change (%, negative = inhibition) at 1uM [%]
CCC(=NC(C)c1ccccc1)c1c(O)[nH]c(=O)[nH]c1=O (centres unmarked) | 9.41
CCC(=O)NC1CC2CCCC(C1)N2Cc1ccc(C)cc1 (centres unmarked) | -11.9
CC(C)CNC(=O)c1cccc(NC(=O)CSc2ccccc2)c1 | -1.35
CCOC(=O)C1=C(c2ccccc2)NC(=O)NC1c1cc(OC)c(OC)c(OC)c1 (centres unmarked) | 7.95
Cc1ccc(CCNS(=O)(=O)c2c(C)nc3sccn3c2=O)cc1 | -4.83
O=C(Nc1ccccc1OC(F)F)c1ccccc1 | 10.1
Cc1ccc2nc(SC(C(=O)c3ccccc3)c3ccccc3)nc(C)c2c1 (centres unmarked) | 9.59
COC(=O)c1ccc(NC(=O)c2ccccc2CC[N+](=O)[O-])cc1 | 5.45
Cc1cc(-c2nnco2)c(C)n1-c1ccccc1 | 2.49
O=C(NCCCN1CCCC1=O)c1c(O)nc2ccccn2c1=O | 29
COc1cc(C(C(=O)NC(C)(C)C)N(Cc2ccccc2)C(=O)c2cnccn2)cc(OC)c1OC (centres unmarked) | 14.6
Cn1cccc1/C=C1\SC(=Nc2ccccc2)NC1=O | 19.8
CCOc1ccccc1C1NC(=O)NC(C)=C1C(=O)OCc1ccccc1 (centres unmarked) | 9.03
C=CCNC(=S)N(CC=C)C1CCS(=O)(=O)C1 (centres unmarked) | 8.6
CC(=O)Nc1ccc(OCC(O)CN2CCN(c3cccc(Cl)c3)CC2)cc1 (centres unmarked) | -4.28
COc1cccc(N(CC(=O)NC2CCCCC2)C(=O)CCC(=O)Nc2nccs2)c1 | 8.8
COc1cc2c(C(=O)NCCCOC(C)C)cn(CC(C)C)c(=O)c2cc1OC | 13.3
O=C(C(Cc1ccccc1)n1cccc1)N1CCCCCC1 (centres unmarked) | 13.6
CC(Sc1nnc(-c2ccncc2)n1C)C(=O)Nc1ccc(N2CCOCC2)cc1 (centres unmarked) | 4.97
COc1ccc(NC(=O)C2CCN(C(=O)c3cccs3)CC2)c(OC)c1 | 17.4
Cc1ccc(-c2ccc(OCC(=O)N3CCOCC3)cc2)cc1 | 13.3
CN(C(=O)Cn1nnc(-c2ccc(F)cc2)n1)C1CCS(=O)(=O)C1 (centres unmarked) | 9.88
CN(C)c1ccc(C=C2C(=O)NC(=S)NC2=O)cc1[N+](=O)[O-] | 16.2

Structure (SMILES) | hERG current change (%, negative = inhibition) at 1uM [%]
Cc1ccc(CCN2CCN=C2Nc2ccccc2)cc1 | -2.73
CC(CNC(=O)c1ccc(-c2ccccc2)cc1)CN(C)C (centres unmarked) | -2.8
Cc1cc2cc(C(c3nnnn3C(C)(C)C)N(Cc3ccco3)CC3CCCO3)c(=O)[nH]c2cc1C (centres unmarked) | 10.4
NCCc1nnc(SCC(=O)c2ccc(Cl)cc2)o1 | 17.6
COC(=O)CSc1nc2[nH]ncc2c(=O)[nH]1 | 6.8
CCc1cc2c(C)cc(=O)oc2cc1OC(=O)C1CCCN1C(=O)OC(C)(C)C (centres unmarked) | 4.43
O=C(COC(=O)/C=C/c1ccc(Cl)cc1)Nc1ccccc1 | 2.87
CCN(CC)c1ccc(/C=N/NC(=O)Cc2cccs2)cc1 | 9.03
CCN(C(=O)c1cn(C)c(=O)c2cc(OC)c(OC)cc12)c1cc(OC)ccc1OC | 9.42
Oc1ccccc1C(Nc1nccs1)c1ccc2cccnc2c1O (centres unmarked) | 13.7
COc1ccc(CN2CCC(=O)N([C@H](CO)CC(C)C)CC2)cc1OC | 5.44
COc1ccc(C(C(=O)NC(C)(C)C)N(C(=O)Cn2nnc3ccccc32)c2ccc(C(C)=O)cc2)cc1O (centres unmarked) | -0.531
CCOC(=O)N1CCN(C(=O)CCN2C(=O)/C(=C\c3ccccc3OC)SC2=S)CC1 | 9.05
CC(Oc1ccccc1[N+](=O)[O-])C(=O)N/N=C/c1ccoc1 (centres unmarked) | 12.7
O=C1NC(=O)C(CC(=O)N(c2ccccc2)C2(C(=O)NC3CCCC3)CCCCC2)N1 (centres unmarked) | 0.897
O=C(CN(CCc1ccccc1)S(=O)(=O)c1ccc(Br)cc1)N/N=C/c1ccc2c(c1)OCO2 | 8.79
CC(=O)N(/N=C1\Sc2ccccc2C1=O)c1cccc(C)c1 | 10.5
Cc1ccc(CSc2nc3c(c(SCC(=O)O)n2)CCCC3)cc1 | 5.16
COc1ccc(NC(=O)Nc2ccccc2C)c(OC)c1 | 12.4
O=C(Nc1cccc(Cl)c1)c1cnccn1 | 13.4
CCN(CC)S(=O)(=O)c1ccc(N2CCOCC2)c(NC(=O)c2ccc(NC(C)=O)cc2)c1 | 11.1
COCCNC(=O)CCc1c(C)nc2nc(-c3cc(OC)cc(OC)c3)nn2c1C | 13.1
COc1ccc(NC(=O)Nc2cccc3ccccc23)cc1S(N)(=O)=O | 13.9

Structure (SMILES) | hERG current change (%, negative = inhibition) at 1uM [%]
Cc1ccc(C2CN(c3ccccc3)CC2C(=O)c2ccc(F)cc2)cc1 (centres unmarked) | -13.9
C=Cn1c(C(=O)O)ccc1-c1ccc(CC)cc1 | 11
CCOC(=O)c1c(C)c(-c2ccccc2)n(CC(=O)N2CCCC2)c1C | 7.93
CC(C)C(=O)N(c1cc2sc(=O)oc2c2ccccc12)S(=O)(=O)c1cccs1 | 12.4
Cc1cc(C)cc(OCC(=O)N/N=C/c2ccc([N+](=O)[O-])o2)c1 | 1.66
CC12C=CC(=O)C=C1CCC1C2C(=O)C[C@@]2(C)C1CCC2(O)C(=O)CO (some centres unmarked) | 20.9
CC(=O)[N-]S(=O)(=O)c1ccc(N)cc1.O.[Na+] | 14.7
CCSc1nc2c(c(-c3ccc(C)o3)c1C#N)CCCC2 | 12.3
Cc1nnn(C23CC4CC(CC(CC(=O)Nc5ccc(C)c(Cl)c5)(C4)C2)C3)n1 | 11
Cc1c(NC(=S)NC(NC(=O)CC(C)C)C(Cl)(Cl)Cl)c(=O)n(-c2ccccc2)n1C (centres unmarked) | 9.92
CC(C(=O)OCc1nnc(-c2ccccc2)o1)N1C(=O)C2CCCCC2C1=O (centres unmarked) | 7.48
COc1ccc(/C=C2\SC(=S)N(Cc3cccnc3)C2=O)cc1C | -1.52
CCOC(=O)c1oc2ccc(Br)cc2c1NC(=O)CN1CCN(C)CC1 | -33.8
O=CN/N=C/c1c(O)ccc2ccccc12 | 12.3
Cc1ccc(C(=O)COC(=O)c2cc(Cl)nc3ccccc23)cc1C | 10.3
Cc1nc(N2CCCCC2)sc1C(=O)c1ccc(SCCO)c([N+](=O)[O-])c1 | 3.58
Cc1ccc(F)cc1NC(=S)NCCc1ccccc1 | 6.46
COc1ccc(S(=O)(=O)NCc2ccccn2)cc1NC(=O)c1ccccc1F | 13.2
CCOC(=O)COc1cccc2c(=O)n(CC(=O)NCc3ccc4c(c3)OCO4)ccc12 | 5.88
O=C(Nc1ccc(S(=O)(=O)Nc2nccs2)cc1)c1c(F)c(F)c(F)c(F)c1F | -13.5
